Assay results reported in paper PMC3068692.
No constants are given. Whether binding was seen depends on the method and setting. For part of these data: In cells and extracts the contact can be indirect. Some results given as binding are weak or reduced against the parent protein; the word gives no strength. For part of these data: Tags and fused reporters may be left off the sequences shown.

T1: PspB fused to a Cya fragment at its C-terminus (PspB–T25 or PspB–T18) (E. coli) (UniProt P0AFM9)
T1 sequence: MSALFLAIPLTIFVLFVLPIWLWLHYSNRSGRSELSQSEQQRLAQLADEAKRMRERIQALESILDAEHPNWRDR

T2: PspC fused to a Cya fragment (T25–PspC or T18–PspC) (E. coli) (UniProt P0AFN2)
T2 sequence: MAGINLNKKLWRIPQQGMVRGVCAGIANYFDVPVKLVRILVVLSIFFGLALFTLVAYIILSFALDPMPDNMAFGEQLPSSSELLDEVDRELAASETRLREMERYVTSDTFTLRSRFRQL

T3: PspG fused to a Cya fragment at its C-terminus (PspG–T25 or PspG–T18) (E. coli) (UniProt P32696)
T3 sequence: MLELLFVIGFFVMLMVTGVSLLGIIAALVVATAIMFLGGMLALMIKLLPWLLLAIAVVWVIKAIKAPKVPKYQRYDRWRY

T4: PspC_(6His) (His-tagged PspC) (E. coli) (UniProt P0AFN2)
T4 sequence: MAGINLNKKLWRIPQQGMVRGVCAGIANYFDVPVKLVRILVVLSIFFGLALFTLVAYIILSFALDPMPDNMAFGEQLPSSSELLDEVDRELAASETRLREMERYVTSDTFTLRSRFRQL

T5: PspC_(1–68) fused to a Cya fragment at its N-terminus (E. coli) (UniProt P0AFN2)
T5 sequence: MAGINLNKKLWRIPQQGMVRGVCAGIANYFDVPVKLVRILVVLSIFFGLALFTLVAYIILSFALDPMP

T6: PspC_(40–119) fused to a Cya fragment at its N-terminus (E. coli) (UniProt P0AFN2)
T6 sequence: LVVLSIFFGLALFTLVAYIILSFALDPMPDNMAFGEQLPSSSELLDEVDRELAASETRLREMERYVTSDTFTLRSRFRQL

T7: PspC_(69–119) fused to a Cya fragment at its N-terminus (E. coli) (UniProt P0AFN2)
T7 sequence: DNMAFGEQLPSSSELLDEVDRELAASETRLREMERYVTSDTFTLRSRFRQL

T8: PspC expressed from the chromosome (E. coli (endogenous in MG1655)), P0AFN2
T8 chain: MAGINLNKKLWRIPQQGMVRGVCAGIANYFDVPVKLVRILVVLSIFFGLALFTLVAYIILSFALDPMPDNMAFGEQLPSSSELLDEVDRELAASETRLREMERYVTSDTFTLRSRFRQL

T9: PspC fused to a Cya fragment (T25–PspC or T18–PspC) (E. coli), P0AFN2
T9 chain: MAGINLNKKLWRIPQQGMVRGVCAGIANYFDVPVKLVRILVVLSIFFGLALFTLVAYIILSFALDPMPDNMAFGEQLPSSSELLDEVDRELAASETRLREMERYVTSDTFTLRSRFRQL


Columns and labels:
[1] = target: T1, PspB fused to a Cya fragment at its C-terminus (PspB–T25 or PspB–T18) (E. coli); assay: two-hybrid; Cya-based bacterial two-hybrid (BACTH) in E. coli BTH101, LB at 30 °C, 0.5 mM IPTG for 1 h, β-galactosidase in liquid culture; threefold above vector alone scored positive; binder written as the T18 fusion, target as the T25 fusion
[2] = target: T2, PspC fused to a Cya fragment (T25–PspC or T18–PspC) (E. coli); assay: as above
[3] = target: T3, PspG fused to a Cya fragment at its C-terminus (PspG–T25 or PspG–T18) (E. coli); assay: as above
[4] = target: T4, PspC_(6His) (His-tagged PspC) (E. coli); assay: pull-down; PspC_(6His) co-expressed with PspB in E. coli Top10 (also Top10ΔpspA), lysate on a Ni-charged HiTrap metal-chelating column, buffer A (50 mM sodium phosphate pH 7, 300 mM NaCl, 5 % glycerol), eluted with 1 M imidazole; peak fractions blotted with anti-Psp antibodies; control with non-tagged PspC
[5] = target: T5, PspC_(1–68) fused to a Cya fragment at its N-terminus (E. coli); assay: two-hybrid; Cya-based bacterial two-hybrid (BACTH) in E. coli BTH101, LB at 30 °C, 0.5 mM IPTG for 1 h, β-galactosidase in liquid culture; threefold above vector alone scored positive; binder written as the T18 fusion, target as the T25 fusion
[6] = target: T6, PspC_(40–119) fused to a Cya fragment at its N-terminus (E. coli); assay: as above
[7] = target: T7, PspC_(69–119) fused to a Cya fragment at its N-terminus (E. coli); assay: as above
[8] = target: T8, PspC expressed from the chromosome (E. …); assay: SDS-PAGE and Western blot for an SDS-PAGE-stable complex; whole cells of MG1655 or MG1655ΔpspA with or without pIV, anti-PspC blot; intensity of the slower-migrating band compared with that of monomeric PspC; conditions: remark: other sources report otherwise
[9] = target: T9, PspC fused to a Cya fragment (T25–PspC …); assay: two-hybrid; Cya-based bacterial two-hybrid (BACTH) in E. coli BTH101, LB at 30 °C, 0.5 mM IPTG for 1 h, β-galactosidase in liquid culture; threefold above vector alone scored positive; binder written as the T18 fusion, target as the T25 fusion; conditions: remark: other sources report otherwise

| Binder | binding [1] | binding [2] | binding [3] | also measured |
| --- | --- | --- | --- | --- |
| PspG of the E. coli cells (protein, UniProt P32696 1-80) MLELLFVIGFFVMLMVTGVSLLGIIAALVVATAIMFLGGMLALMIKLLPWLLLAIAVVWVIKAIKAPKVPKYQRYDRWRY |  |  |  | binding [4]: binds |
| PspB fused to a Cya fragment at its C-terminus (PspB–T25 or PspB–T18) (protein, UniProt P0AFM9 1-74) MSALFLAIPLTIFVLFVLPIWLWLHYSNRSGRSELSQSEQQRLAQLADEAKRMRERIQALESILDAEHPNWRDR | binds | binds | no binding | binding [5]: binds; binding [6]: binds; binding [7]: no binding |
| WT PspB (no tag named) (protein, UniProt P0AFM9 1-74) MSALFLAIPLTIFVLFVLPIWLWLHYSNRSGRSELSQSEQQRLAQLADEAKRMRERIQALESILDAEHPNWRDR |  |  |  | binding [4]: binds |
| ArcB, T18 fusion (protein, UniProt P0AEC3 1-778) MKQIRLLAQYYVDLMMKLGLVRFSMLLALALVVLAIVVQMAVTMVLHGQVESIDVIRSIFFGLLITPWAVYFLSVVVEQLEESRQRLSRLVQKLEEMRERDLSLNVQLKDNIAQLNQEIAVREKAEAELQETFGQLKIEIKEREETQIQLEQQSSFLRSFLDASPDLVFYRNEDKEFSGCNRAMELLTGKSEKQLVHLKPADVYSPEAAAKVIETDEKVFRHNVSLTYEQWLDYPDGRKACFEIRKVPYYDRVGKRHGLMGFGRDITERKRYQDALERASRDKTTFISTISHELRTPLNGIVGLSRILLDTELTAEQEKYLKTIHVSAVTLGNIFNDIIDMDKMERRKVQLDNQPVDFTSFLADLENLSALQAQQKGLRFNLEPTLPLPHQVITDGTRLRQILWNLISNAVKFTQQGQVTVRVRYDEGDMLHFEVEDSGIGIPQDELDKIFAMYYQVKDSHGGKPATGTGIGLAVSRRLAKNMGGDITVTSEQGKGSTFTLTIHAPSVAEEVDDAFDEDDMPLPALNVLLVEDIELNVIVARSVLEKLGNSVDVAMTGKAALEMFKPGEYDLVLLDIQLPDMTGLDISRELTKRYPREDLPPLVALTANVLKDKQEYLNAGMDDVLSKPLSVPALTAMIKKFWDTQDDEESTVTTEENSKSEALLDIPMLEQYLELVGPKLITDGLAVFEKMMPGYVSVLESNLTAQDKKGIVEEGHKIKGAAGSVGLRHLQQLGQQIQSPDLPAWEDNVGEWIEEMKEEWRHDVEVLKAWVAKATKK | binds weakly | binds weakly |  |  |
| PspC^G48A, T18 fusion (protein, UniProt P0AFN2 1-119) MAGINLNKKLWRIPQQGMVRGVCAGIANYFDVPVKLVRILVVLSIFFALALFTLVAYIILSFALDPMPDNMAFGEQLPSSSELLDEVDRELAASETRLREMERYVTSDTFTLRSRFRQL | binds |  | no binding |  |
| PspC expressed from the chromosome, P0AFN2 1-119 (protein) MAGINLNKKLWRIPQQGMVRGVCAGIANYFDVPVKLVRILVVLSIFFGLALFTLVAYIILSFALDPMPDNMAFGEQLPSSSELLDEVDRELAASETRLREMERYVTSDTFTLRSRFRQL |  |  |  | binding [8]: no binding |
| PspC fused to a Cya fragment (T25–PspC or T18–PspC), P0AFN2 1-119 (protein) MAGINLNKKLWRIPQQGMVRGVCAGIANYFDVPVKLVRILVVLSIFFGLALFTLVAYIILSFALDPMPDNMAFGEQLPSSSELLDEVDRELAASETRLREMERYVTSDTFTLRSRFRQL |  |  |  | binding [9]: no binding |
| PspC^G74A, T18 fusion (protein, UniProt P0AFN2 1-119) MAGINLNKKLWRIPQQGMVRGVCAGIANYFDVPVKLVRILVVLSIFFGLALFTLVAYIILSFALDPMPDNMAFAEQLPSSSELLDEVDRELAASETRLREMERYVTSDTFTLRSRFRQL | binds |  | binds |  |
| PspC fused to a Cya fragment (T25–PspC or T18–PspC) (protein, UniProt P0AFN2 1-119) MAGINLNKKLWRIPQQGMVRGVCAGIANYFDVPVKLVRILVVLSIFFGLALFTLVAYIILSFALDPMPDNMAFGEQLPSSSELLDEVDRELAASETRLREMERYVTSDTFTLRSRFRQL | binds |  | binds | binding [5]: no binding; binding [6]: no binding |

More lines, main results first:

| binding [1] | binding [2] | binding [3] | Binder | also measured |
| --- | --- | --- | --- | --- |
| no binding |  |  | PspC_(69–119) fused to a Cya fragment at its N-terminus (domain or fragment, UniProt P0AFN2 69-119) DNMAFGEQLPSSSELLDEVDRELAASETRLREMERYVTSDTFTLRSRFRQL |  |
| no binding | binds | binds | PspG fused to a Cya fragment at its C-terminus (PspG–T25 or PspG–T18) (protein, UniProt P32696 1-80) MLELLFVIGFFVMLMVTGVSLLGIIAALVVATAIMFLGGMLALMIKLLPWLLLAIAVVWVIKAIKAPKVPKYQRYDRWRY |  |
| binds | no binding |  | PspC_(1–68) fused to a Cya fragment at its N-terminus (domain or fragment, UniProt P0AFN2 1-68) MAGINLNKKLWRIPQQGMVRGVCAGIANYFDVPVKLVRILVVLSIFFGLALFTLVAYIILSFALDPMP | binding [5]: no binding; binding [6]: no binding |
| binds | no binding |  | PspC_(40–119) fused to a Cya fragment at its N-terminus (domain or fragment, UniProt P0AFN2 40-119) LVVLSIFFGLALFTLVAYIILSFALDPMPDNMAFGEQLPSSSELLDEVDRELAASETRLREMERYVTSDTFTLRSRFRQL | binding [5]: no binding; binding [6]: no binding |
| binds |  |  | PspC_(40–119) fused to T18 at its C-terminus (domain or fragment, UniProt P0AFN2 40-119) LVVLSIFFGLALFTLVAYIILSFALDPMPDNMAFGEQLPSSSELLDEVDRELAASETRLREMERYVTSDTFTLRSRFRQL |  |
